Measured values: PubChem BioAssay AID1347120 (National Center for Advancing Translational Sciences (NCATS), 2019)
About 930 (0.24%) of roughly 390,000 compounds were called active. The inconclusive results got no clear call from the source; some entries with a clear call stand among them for comparison. The call rests on the fitted dose curve; in most records, active means well fitted activation curve with a large enough effect; inconclusive means small, poorly fitted or top-dose-only effect; inactive means no such curve, though single readings can be large or run the other way. Potencies of inconclusive entries are doubtful fits and often do not repeat.

Assay: qHTS for Suppressors of FUS Proteinopathy: Primary screen using FUS-linked yeast assay; further: nearly all actives have a fitted effect of over 55% in size;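 on growth rescue (activation): plate controls were DMSO vehicle for no effect and reference control for full effect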
Conditions: S. cerevisiae FUS-expressing, OD600, 24 h; Potency: growth rescue; growth rescue (activation): at 76.6 µM (top of the series)
Method in brief: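 Read-out: OD at 600 nm after 24hr at 30C, reporting rescue of FUS-induced yeast toxicity. Cells at OD 0.005 in galactose (2%) minimal medium; compounds tested in a dilution series; CP55940 titration from 92uM final as control.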
Potency means the concentration at half of the fitted maximal effect; tags describe the fitted curve by direction and shape.

Which Potency does the source give for COc1ccc(NC(=O)Cn2c(=O)n(Cc3ccccc3Cl)c(=O)c3cc(OC)c(OC)cc32)cc1OC here?
The Potency was “inactive”.

With CCCCCn1nc(C(=O)OCC(=O)c2c(N)n(C)c(=O)n(C)c2=O)c2ccccc2c1=O as the compound, how does the Potency read?
Its Potency is inconclusive: 28.2 µM [activator, partial curve].

For COc1ccc(CC(=O)Nc2ccc(S(=O)(=O)N3CCCC3)cc2)cc1OC, which Potency is on record?
The Potency was “inactive”.

With COc1ccc(-c2cc(C(=O)N3CCCc4ccccc43)no2)cc1OC as the compound, how does the growth rescue (activation) read?
The growth rescue (activation) was inconclusive: 30.3% [activator].

Which Potency does the source give for Cc1ccc(OCC(=O)Nc2ccc3nc(SCC(=O)N4CCOCC4)sc3c2)cc1C here?
Its Potency is “inactive”.

For CCN(CC)C(=O)c1sc2c(c1C)c(=O)n(-c1ccc(C)c(C)c1)c(=O)n2Cc1cccc(Cl)c1, which Potency is on record?
The Potency was inconclusive: 25.1 µM [activator, partial curve, poor fit].

With O=C1CN(C(=O)c2ccc(S(=O)(=O)N3CCCCC3)cc2)C(c2ccc(F)cc2)c2cc(Br)ccc2N1 (configuration not stated) as the compound, how does the Potency read?
Its Potency is active: 17.8 µM.

Which Potency does the source give for CC(C)c1ccc(NC(=O)c2ccc3c(c2)C(=O)N(Cc2cccnc2)C3=O)cc1 here?
Its Potency is inconclusive: 20 µM [activator, partial curve].

Which Potency does the source give for CC(=O)N1CCc2cc(CNS(=O)(=O)c3ccc(C(C)(C)C)cc3)ccc21 here?
Its Potency is inconclusive: 28.2 µM [activator, single point].

With COCCNC(=O)CSc1c2c(nc3ccc(Cl)cc13)CCCC2 as the compound, how does the Potency read?
The Potency was “inactive”.

Which Potency does the source give for CS(=O)(=O)Nc1cccc(NC(=O)c2cccc3c(-c4cccc(C(N)=O)c4)coc23)c1 here?
The Potency was inconclusive: 39.8 µM [activator, partial curve, poor fit].

Which Potency does the source give for Cc1ccc(/C=N/NC(=O)c2cccc(NC(=O)c3ccccc3Cl)c2)o1 here?
The Potency was inconclusive: 15.8 µM [activator, partial curve, poor fit].

For Cc1ccc(S(=O)(=O)CCC(=O)OCCOc2cccc(Br)c2)cc1, which Potency is on record?
Its Potency is inconclusive: 20 µM [activator, partial curve].

With CC(C)(C)N1CC(c2nc3ccccc3n2Cc2ccc(Cl)cc2)CC1=O (configuration not stated) as the compound, how does the Potency read?
The Potency was inconclusive: 50.1 µM [activator, partial curve, poor fit].

For Oc1ccc(-c2csc(Nc3ccccn3)n2)cc1, which Potency is on record?
Its Potency is “inactive”.

With COc1ccc(Cl)cc1Cn1c(C)c(C(=O)NCc2ccc3c(c2)OCCO3)sc1=O as the compound, how does the Potency read?
Its Potency is inconclusive: 25.1 µM [activator, partial curve, poor fit].

For COC(=O)c1c(NC(=O)CSc2ncnc3c2cnn3-c2ccccc2Cl)sc2c1CCCC2, which Potency is on record?
The Potency was inconclusive: 35.5 µM [activator, partial curve, poor fit].

With COc1ccc2c(c1)C(SCC(=O)NCCc1ccc(Cl)cc1)CC(C)(C)O2 (configuration not stated) as the compound, how does the Potency read?
The Potency was inconclusive: 20 µM [activator, single point].

With COc1ccc(Cn2ccc3nc(C)c(C(=O)N4CCN(c5ccccc5F)CC4)cc3c2=O)cc1 as the compound, how does the Potency read?
The Potency was inconclusive: 11.2 µM [activator, single point].

Which Potency does the source give for COc1ccc(C(C)(C)C)cc1NC(=O)c1[nH]c(C)c(C(C)=O)c1C here?
Its Potency is inconclusive: 31.6 µM [activator, partial curve, poor fit].

For CCC/C=C/c1ccc(CN2C(C(C)C)C(=O)N(Cc3cn(CCC4OCCCO4)nn3)CCS2(=O)=O)cc1 (configuration not stated), which Potency is on record?
The Potency was inconclusive: 28.2 µM [activator, single point].

With COc1cc(OC)cc(-c2nnc(SCC(=O)N3CCCc4ccccc43)o2)c1 as the compound, how does the Potency read?
The Potency was “inactive”.

For Cc1ccc(C(=O)O)cc1NC(=S)NC(=O)c1ccc(-c2ccccc2)cc1, which Potency is on record?
Its Potency is “inactive”.

Which Potency does the source give for CCN(CC)S(=O)(=O)c1ccc(C(=O)NC2=C(C(=O)OC)SCC2)cc1 here?
The Potency was inconclusive: 12.6 µM [activator, partial curve, poor fit].

With CN(C)CCCN1C(=O)c2cc3ccccc3cc2C1=O as the compound, how does the Potency read?
Its Potency is inconclusive: 0.891 µM [activator, full curve, poor fit].

For COc1ccc(-c2nc3cc(C(C)C)ccc3o2)cc1NC(=O)c1ccc(C)c(Cl)c1, which Potency is on record?
The Potency was “inactive”.

With COC(=O)c1cc2sc(C)cc2n1CC(=O)Nc1cccc(SC)c1 as the compound, how does the Potency read?
The Potency was “inactive”.

With COc1ccc(NS(=O)(=O)c2cccc(Cl)c2Cl)cc1S(=O)(=O)N1CCCCC1 as the compound, how does the Potency read?
The Potency was inconclusive: 50.1 µM [activator, single point].

With COc1cc(NC(=S)NN2CCN(C)CC2)cc(OC)c1 as the compound, how does the Potency read?
Its Potency is inconclusive: 11.2 µM [activator, single point].

Which Potency does the source give for Cc1noc(/C=C/N(C)C)c1S(=O)(=O)N1CCCC(C(=O)NCCC2=CCCCC2)C1 (configuration not stated) here?
Its Potency is inconclusive: 31.6 µM [activator, single point].

With O=C(Cn1nnc(-c2ccc(Cl)cc2)n1)NCCC1=CCCCC1 as the compound, how does the growth rescue (activation) read?
The growth rescue (activation) was inconclusive: 58.5% [activator].

For CSc1ccc(CNC(=O)CN2C(=O)C3CCCCN3c3ccc(C(=O)N4CCCC4)cc32)cc1 (configuration not stated), which Potency is on record?
Its Potency is inconclusive: 35.5 µM [activator, single point].

With CCOC(=O)[C@]12CCCCC/C=C\1N(Cc1ccc(OC)cc1)C(=O)[C@H]2CC(=O)NCc1cccc(C(F)(F)F)c1 as the compound, how does the Potency read?
Its Potency is inconclusive: 22.4 µM [activator, partial curve, poor fit].

For CCC(C)(C)NC(=O)C(c1ccccn1)N(C(=O)c1csnn1)c1ccc(C)cc1 (configuration not stated), which Potency is on record?
The Potency was “inactive”.

Which Potency does the source give for CC[C@]12c3[nH]c4cc(-c5ccco5)ccc4c3CCN1C(=O)[C@@H](CC(=O)NCc1ccc(OC)c(OC)c1)C[C@@H]2C(=O)N1CCN(C(=O)C2CC2)CC1 here?
Its Potency is inconclusive: 35.5 µM [activator, single point].

Which Potency does the source give for CCCC(=O)C1=C(c2cccc(OC)c2)N(C(=O)CCC)n2c(C)nnc2S1 here?
The Potency was inconclusive: 7.08 µM [activator, full curve].

Which Potency does the source give for CCOC(=O)c1ccc2c(c1)[C@@H]1C=CC[C@@H]1[C@H](c1cccc(OC)c1OC)N2 here?
Its Potency is inconclusive: 22.4 µM [activator, partial curve].

For CCN1CCN(CC(=O)Nc2cc(S(=O)(=O)N3CCCCC3)ccc2Cl)CC1, which Potency is on record?
Its Potency is “inactive”.

With O=C(c1cnc(N2CCCCC2)c2ccccc12)N1CCN(c2ccc(Cl)cc2)CC1 as the compound, how does the Potency read?
The Potency was inconclusive: 25.1 µM [activator, single point].

With COC(=O)[C@]12CCCCC=C1N(Cc1ccco1)C(=O)[C@H](CC(=O)NCc1cccc3ccccc13)C2 as the compound, how does the Potency read?
Its Potency is inconclusive: 50.1 µM [activator, single point].

Which Potency does the source give for N#Cc1ccccc1S(=O)(=O)N1CCN(C(=O)C2CCCCC2)CC1 here?
The Potency was inconclusive: 31.6 µM [activator, single point].

Which Potency does the source give for Cc1cn(C2OC(COC(=O)c3ccccc3)C(OC(=O)c3ccccc3)C2OC(=O)c2ccccc2)c(=O)[nH]c1=O (configuration not stated) here?
Its Potency is active: 25.1 µM.

Which Potency does the source give for COc1ccccc1N1CCN(CCCNC(=O)c2cnn(-c3ccc(C)c(C)c3)c2C2CCN(C(=O)OC(C)(C)C)CC2)CC1 here?
The Potency was inconclusive: 28.2 µM [activator, single point].

With CC(=O)OC[C@@H]1CN(Cc2ccccc2)C[C@H](n2cnc3c(NCC(C)C)ncnc32)O1 as the compound, how does the Potency read?
The Potency was inconclusive: 22.4 µM [activator, single point].

With N#CC(c1ccccc1)C(CC(=NO)c1ccccc1)c1ccccc1 (configuration not stated) as the compound, how does the Potency read?
Its Potency is “inactive”.

With CCOC(=O)c1c(NC(=O)C(C)Sc2cn(CCNC(=O)c3ccccc3OC)c3ccccc23)sc2c1CCC2 (configuration not stated) as the compound, how does the Potency read?
Its Potency is inconclusive: 31.6 µM [activator, single point].

For CC1=C(C(=O)Nc2ccccc2)C(c2ccncc2)C(C#N)=C(SCC(=O)Nc2ccccc2)N1 (configuration not stated), which Potency is on record?
Its Potency is inconclusive: 35.5 µM [activator, single point].

With Nc1[nH]c2ccccc2c1C(=O)NC1CC1 as the compound, how does the Potency read?
The Potency was “inactive”.

With COCCN(C(=O)CSc1nc2ccccc2c(=O)n1CC(C)C)c1c(N)n(Cc2ccccc2)c(=O)[nH]c1=O as the compound, how does the Potency read?
Its Potency is inconclusive: 39.8 µM [activator, single point].

With COc1ccc(C2c3c4c(n(C)c3CCN2C)CCN(C)C4c2ccc(OC)cc2)cc1 (configuration not stated) as the compound, how does the growth rescue (activation) read?
Its growth rescue (activation) is inconclusive: 74.1% [activator].

For Fc1ccc(COc2ccc(Br)cc2CNCC2CCCO2)cc1 (configuration not stated), which Potency is on record?
The Potency was inconclusive: 0.891 µM [activator, partial curve, poor fit].

With COc1ccc(-c2csc(C(C)(O)c3ccc(F)c(F)c3)n2)cc1OC (configuration not stated) as the compound, how does the Potency read?
Its Potency is “inactive”.

For CCCc1cc(=O)[nH]c(SCC(=O)N2CCc3ccccc3C2)n1, which Potency is on record?
Its Potency is inconclusive: 28.2 µM [activator, partial curve, poor fit].

For COc1ccc([C@@H]2CC(=O)[C@@H]3CN(S(=O)(=O)c4ccc(C)cc4)[C@H](c4cccc(Cl)c4)C[C@@H]3N2S(=O)(=O)c2ccccc2)cc1, which Potency is on record?
The Potency was inconclusive: 50.1 µM [activator, single point].

For OC[C@@H]1CN(Cc2ccc(Cl)cc2)C[C@H](n2cnc3c(N4CCN(c5ccccc5)CC4)ncnc32)O1, which Potency is on record?
Its Potency is inconclusive: 17.8 µM [activator, partial curve, poor fit].

Which Potency does the source give for CCCOc1ccc(NC(=O)CC2C(=O)N(c3ccc(C)cc3)C(=O)N2C2CCCC2)cc1 (configuration not stated) here?
The Potency was inconclusive: 28.2 µM [activator, single point].

For O=C(Cn1nnc(-c2ccncc2)n1)Nc1ccc(F)cc1F, which Potency is on record?
Its Potency is “inactive”.

With CCOC(=O)c1nnn(-c2nc(OC)nc(N3CCCC3)n2)c1-c1ccccc1 as the compound, how does the Potency read?
The Potency was “inactive”.

For CCSc1ncc(Cl)c(C(=O)N(Cc2ccccc2)Cc2ccco2)n1, which Potency is on record?
Its Potency is “inactive”.

For CCC(c1nnnn1-c1ccc2c(c1)OCCO2)N1CCN(c2cccc(C)c2C)CC1 (configuration not stated), which Potency is on record?
Its Potency is inconclusive: 39.8 µM [activator, single point].

Which Potency does the source give for Cc1c(NC(=O)c2cc3c(s2)-c2ccccc2OC3)cccc1[N+](=O)[O-] here?
Its Potency is “inactive”.

Which Potency does the source give for COc1cccc(C2=CC(=O)C[C@H](c3ccc(Cl)cc3)C2)c1 here?
Its Potency is inconclusive: 35.5 µM [activator, single point].
